Test results from PubChem BioAssay (Tox21).
This list was built around the results that the source calls inconclusive (neither active nor inactive); the mix of calls is not that of the screen. Potencies of inconclusive entries are left out as doubtful fits. Activity calls are given as the source filed them. Calls follow the shape of the dose curve; as a rule, active = well fitted cell-killing curve with a large enough effect in the repeat runs; inconclusive = weak or mixed curves, or effect the other way; inactive = no such curve, though single readings can be large or run the other way.

assay: qHTS assay to identify small molecule agonists of the vitamin D receptor (VDR) signaling pathway - cell viability counter screen (AID 743224); conditions: VDR-bla HEK293T viability, CellTiter-Glo luminescence, 16 h; series mostly up to 62.6 µM; also: nearly all actives have a fitted effect of over 50% in size
How it was run: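 Counter screen run in the same wells as the VDR-bla reporter assay: CellTiter-Glo luminescence, 30 min at room temperature, after 16 h compound treatment at 37C of cells pre-plated for 4 h.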
Potency is read from the fitted curve at half-maximal effect; tags tell the direction and shape of the fitted curve.

Row | SMILES | Potency
1 | CN(C)CCCCCCN(C)C | inactive
2 | O=C(Oc1ccccc1)c1ccc2ccccc2c1O | inconclusive [cytotoxic, full curve]
3 | COc1cc(C)c(Cc2cnc(N)nc2N)cc1OC | inactive
4 | Cc1ccc(C)c(C)c1 | inactive
5 | Nc1ccc(Cl)c(N)c1 | inconclusive [cytotoxic, partial curve, poor fit]
6 | CN(C)CCCN1c2ccccc2CCc2ccccc21 | inconclusive [cytotoxic, partial curve]
7 | CCCCCCCCCCN | inconclusive [cytotoxic, partial curve, poor fit]
8 | O=C(C(=O)c1ccco1)c1ccco1 | inconclusive [cytotoxic, partial curve, poor fit]
